Our source for the enrichment ratio values is a collection of fitness landscapes (doi:10.1126/science.1257360).

This is one part of the list. Bounds are passed on as bounds.

B1: PhoQ; a variant is named by its letters at X, in order, P23837 (parent)
chain: MKKLLRLFFPLSLRVRFLLATAAVVLVLSLAYGMVALIGYSVSFDKTTFRLLRGESNLFYTLAKWENNKLHVELPENIDKQSPTMTLIYDENGQLLWAQRDVPWLMKMIQPDWLKSNGFHEIEADVNDTSLLLSGDHSIQQQLQEVREDDDDAEMTHSVAVNVYPATSRMPKLTIVVVDTIPVELKSSYMVWSWFIYVLSANLLLVIPLLWVAAWWSLRPIEALAKEVRELEEHNRELLNPATTRELTSLVRNLNRLLKSERERYDKYRTTLTDLTHSLKTPLXXLQXXLRSLRSEKMSVSDAEPVMLEQISRISQQIGYYLHRASMRGGTLLSRELHPVAPLLDNLTSALNKVYQRKGVNISLDISPEISFVGEQNDFVEVMGNVLDNACKYCLEFVEISARQTDEHLYIVVEDDGPGIPLSKREVIFDRGQRVDTLRPGQGVGLAVAREITEQYEGKIVAGESMLGGARMEVIFGRQHSAPKDE

The variants in the assay derive from B1. In words: enrichment ratio after two sorts for PhoP signalling (ratio (wild type AVST 3.29)); higher = more functional. To be noted: with PhoP (E. coli).
For the variant KPTN, the enrichment ratio was at most 0.25. As for TQTT, the enrichment ratio was 23.1. With FLWL the figure was at most 0.25. For the variant SDYG, the enrichment ratio is at most 0.25. As for YYQT, the enrichment ratio is at most 0.25. With VFNW the figure was at most 0.25; with MDSD, at most 0.25; with NEDY, at most 0.25. The figure for AVCH is 13; for NATP it is at most 0.25; for VYNN it is at most 0.25. With RHIP, the enrichment ratio is at most 0.25. Turning to RPQC, the enrichment ratio is at most 0.25. For DGYM, the enrichment ratio was at most 0.25. Take LMVT: the enrichment ratio is at most 0.25.

On to FKWQ, for which the enrichment ratio was at most 0.25. The figure for QPWL is at most 0.25. Turning to NYNY, the enrichment ratio was at most 0.25.

On to IVHI, for which the enrichment ratio is at most 0.25.

On to HSHH, for which the enrichment ratio is at most 0.25. With SQRF the figure was at most 0.25; with LDTG, at most 0.25.

On to PKIL, for which the enrichment ratio is at most 0.25.

AYMD: the enrichment ratio was at most 0.25. For the variant WNRM, the enrichment ratio was at most 0.25. The figure for MTYW is at most 0.25; for ARYW it is at most 0.25; for WWGS it is at most 0.25. As to DFWF, the enrichment ratio is at most 0.25. In the case of YYRM, the enrichment ratio was at most 0.25.

Regarding GVSH, the enrichment ratio was found to be 2.66. As for CILP, the enrichment ratio was at most 0.25. Regarding DIHC, the enrichment ratio is at most 0.25. For PKTV, the enrichment ratio is at most 0.25.

In the case of QVDR, the enrichment ratio came to 2.61. The figure for GEFS is at most 0.25; for IWLK it is at most 0.25; for VPKL it is at most 0.25. MYQQ: the enrichment ratio is at most 0.25.

On to SRDG, for which the enrichment ratio was found to be 0.277. With DYNT the figure was at most 0.25; with SDLP, at most 0.25; with NFDC, at most 0.25.

Turning to SNST, the enrichment ratio was 9.41. The figure for KSAR is at most 0.25; for VSSA it is at most 0.25; for QPPE it is at most 0.25. With PVRS the figure was at most 0.25; with YKWR, at most 0.25; with SWGS, at most 0.25.

Consider TKEY, for which the enrichment ratio is at most 0.25. The figure for VDYC is at most 0.25. Regarding LNIK, the enrichment ratio was at most 0.25. The figure for RLVD is at most 0.25.

PWCC: the enrichment ratio was 3.37. Regarding ETAQ, the enrichment ratio was at most 0.25.

With TNNI, the enrichment ratio is 3.41. With IYLP, the enrichment ratio is at most 0.25. For GKHN, the enrichment ratio was at most 0.25. Consider VCDW, for which the enrichment ratio is at most 0.25. On to YMLS, for which the enrichment ratio is at most 0.25. With QQMF the figure was at most 0.25. With MRVC the figure was at most 0.25. With WSPD the figure was at most 0.25; with IRSW, at most 0.25; with RFNH, at most 0.25. Take HGVM: the enrichment ratio was at most 0.25. With VKYE the figure was at most 0.25; with SQAF, 3.99. For GPYS, the enrichment ratio is at most 0.25. The figure for RVFA is at most 0.25. As to GLTK, the enrichment ratio was at most 0.25. In the case of ETRQ, the enrichment ratio was at most 0.25. With QLFH the figure was at most 0.25. The figure for DFPE is at most 0.25. The figure for HTMS is at most 0.25. AKLF: the enrichment ratio is 7.81.

Regarding IAIY, the enrichment ratio was at most 0.25.

On to NLCW, for which the enrichment ratio is at most 0.25. For IGCK, the enrichment ratio was at most 0.25. The figure for HPFV is at most 0.25; for TYRK it is at most 0.25. The figure for AYMH is at most 0.25; for FVDG it is at most 0.25; for RCRA it is at most 0.25. On to SMPK, for which the enrichment ratio is at most 0.25. The figure for NTND is at most 0.25; for WFLQ it is at most 0.25. In the case of AIEL, the enrichment ratio is at most 0.25. With GRGW the figure was at most 0.25. Consider KELD, for which the enrichment ratio is at most 0.25. Take RCGY: the enrichment ratio was at most 0.25.

Turning to SRNE, the enrichment ratio is at most 0.25. The figure for MKPN is at most 0.25. With VDGI, the enrichment ratio is at most 0.25. With MPER the figure was at most 0.25; with PSFL, at most 0.25. In the case of WQRR, the enrichment ratio was at most 0.25. Take KTGG: the enrichment ratio was at most 0.25. The figure for SYKG is at most 0.25; for FPKT it is at most 0.25; for HSCT it is at most 0.25. Turning to SPIG, the enrichment ratio was at most 0.25. The figure for EDAH is at most 0.25; for VLIA it is at most 0.25. The figure for EYFN is at most 0.25; for FSDT it is at most 0.25; for QCIS it is at most 0.25. The figure for VPES is at most 0.25; for YSPD it is at most 0.25; for FEED it is at most 0.25.

As to SGRH, the enrichment ratio is at most 0.25. Take WIDY: the enrichment ratio is at most 0.25. For the variant FMAF, the enrichment ratio is at most 0.25. On to SLFT, for which the enrichment ratio is at most 0.25.

On to NGRY, for which the enrichment ratio was at most 0.25. ICTH: the enrichment ratio is at most 0.25.

For LPEF, the enrichment ratio turned out to be 0.394. With EAVH the figure was at most 0.25. In the case of WHGG, the enrichment ratio is at most 0.25.

On to YQGA, for which the enrichment ratio was at most 0.25.

Consider LVMI, for which the enrichment ratio was at most 0.25.

On to HRII, for which the enrichment ratio is at most 0.25. With FFNP, the enrichment ratio is at most 0.25. On to SEVK, for which the enrichment ratio was found to be 12.3.

Turning to RGYN, the enrichment ratio is at most 0.25. Turning to KMST, the enrichment ratio was at most 0.25. With KIHV the figure was at most 0.25; with IHSL, at most 0.25. For the variant YRLI, the enrichment ratio was at most 0.25. With KQRI the figure was at most 0.25; with RHPC, at most 0.25; with HGVE, at most 0.25. Consider TPTE, for which the enrichment ratio was at most 0.25. As to HSVY, the enrichment ratio was at most 0.25. For the variant ATCV, the enrichment ratio was determined as 15.4. As to SWSD, the enrichment ratio is at most 0.25. With VSHF the figure was at most 0.25; with HYVI, at most 0.25.

As for DFWP, the enrichment ratio is at most 0.25.

For TFYC, the enrichment ratio was at most 0.25. The figure for TCHM is 3.39; for LYTD it is at most 0.25; for GYPM it is at most 0.25. With GYTR the figure was at most 0.25; with FKFG, at most 0.25. With KVCQ, the enrichment ratio was at most 0.25. With EHDG the figure was at most 0.25; with TEFE, at most 0.25; with VTYH, at most 0.25. The figure for WFTH is at most 0.25; for TWQT it is at most 0.25; for VSLP it is at most 0.25. In the case of NPMR, the enrichment ratio is at most 0.25. With WRIW the figure was at most 0.25; with VKVD, at most 0.25; with QSWM, 11.9.

In the case of HSDS, the enrichment ratio is at most 0.25. Take RIPM: the enrichment ratio was at most 0.25. With QAPW the figure was at most 0.25; with TSPS, at most 0.25; with SFNR, at most 0.25. Regarding NFEN, the enrichment ratio is at most 0.25. The figure for TPKK is at most 0.25; for ESTW it is at most 0.25. For the variant IMQE, the enrichment ratio was at most 0.25. Regarding FPPC, the enrichment ratio was at most 0.25.

VFWP: the enrichment ratio was at most 0.25. As for WTIY, the enrichment ratio is at most 0.25.

Regarding RTLN, the enrichment ratio was at most 0.25. The figure for SLKH is at most 0.25; for WHRY it is 0.322. With FKFI the figure was at most 0.25.

With DKRD, the enrichment ratio was at most 0.25. As for TIII, the enrichment ratio was at most 0.25. The figure for FHPF is at most 0.25; for DALG it is at most 0.25.

Consider RSLT, for which the enrichment ratio is at most 0.25. With FKDT, the enrichment ratio was at most 0.25.

Take NGTK: the enrichment ratio was at most 0.25.

Consider CIFH, for which the enrichment ratio is at most 0.25.

With VKFM, the enrichment ratio was at most 0.25. As for SHHP, the enrichment ratio is at most 0.25. Take SMSC: the enrichment ratio was found to be 8.8. With FRDT, the enrichment ratio was at most 0.25. The figure for SDTD is at most 0.25; for FGYY it is at most 0.25; for RQPG it is at most 0.25. In the case of GEGQ, the enrichment ratio is at most 0.25. With VRVA the figure was at most 0.25; with APVH, at most 0.25. On to PMGE, for which the enrichment ratio is at most 0.25. The figure for VFPM is at most 0.25. The figure for ERRI is at most 0.25; for FTLP it is at most 0.25.
